In PubChem BioAssay AID588855 (National Center for Advancing Translational Sciences (NCATS), 2011):
Values joined by “and” are separate entries in the source; they are usually repeats but may differ in a detail not shown here. Identical values can stand only once. The campaign covered roughly 410,000 compounds. About 5,000 (1.2%) were called active. Inconclusive results, whose numbers are uncertain, are shown with a selection of clear calls. Calls come from the whole dose curve; as a rule, active = well fitted inhibition curve with a large enough effect; inconclusive = small, poorly fitted or top-dose-only effect; inactive = no such curve, though single readings can be large or run the other way. A potency beside an inconclusive call is a rough fit, not a confirmed value.

assay: qHTS for Inhibitors of TGF-b; details: HepG2 CAGA-GFP TGF-b/SMAD3 reporter, GFP fluorescence, 18 h, TGF-beta stimulated, 500 pg/mL final; series mostly up to 46.1 µM; activity, negative = inhibition: at the top concentration; note: nearly all actives have a fitted effect of over 65% in size
Outline: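 GFP signal (ex488/em500-530) from TGF-beta-stimulated HEPG2 CAGA-GFP cells, 500 pg/mL final, 18 h at 37 degrees C in DMEM plus 1% FBS, normalized to unstimulated and DMSO-stimulated controls.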
% is set by controls: 0 for no effect and ±100 for the full control effect; potency is the fitted concentration of half-maximal effect; tags give direction and shape of the fitted curve.

SMILES	activity, negative = inhibition	Potency
O=S(=O)(c1cccs1)N1CN(Cc2cccs2)c2nc3ccccc3nc21	inactive: 7.25%	–
CN(Cc1cn(-c2ccccc2)nc1-c1ccc(F)cc1)C(=O)CCC(=O)O	–	inconclusive: 5.62 µM [inhibitor, full curve, poor fit]
Cc1ccc(S(=O)(=O)Nc2ccc3c(c2)C(=O)N([C@H](C)CO)C[C@H](C)[C@@H](CN(C)Cc2ccc(-c4ccccc4)cc2)O3)cc1	–	active: 10 µM
CCc1nc2c(OCC(=O)c3ccc(Cl)cc3Cl)cccn2c1N(C=O)Cc1ccccc1	–	inconclusive: 35.5 µM [inhibitor, single point]
CN(CC(=O)Nc1ccc(Cl)cc1)CC(=O)Nc1sc2c(c1C(N)=O)CCC2	–	inconclusive: 35.5 µM [inhibitor, single point]
O=C(c1cc(COc2cccc(C(F)(F)F)c2)on1)N1CCC(c2ccccc2)CC1	–	inconclusive: 35.5 µM [inhibitor, single point]
CCOC(=O)c1oc2nc(CC(C)C)c3c(c2c1N)CCCC3	–	inconclusive: 12.6 µM [inhibitor, partial curve, poor fit]
O=C(NCCCN1CCOCC1)c1cc2c([nH]c3ccccc32)c(-c2cccc(Br)c2)n1	–	inconclusive: 35.5 µM [inhibitor, single point]
COc1ccc(C=O)cc1COc1ccc([N+](=O)[O-])c(C)c1	inactive: -0.0185%	–
CNC(=S)/N=C(\Nc1ccc(C)cc1)c1ccccc1	inactive: 1.04%	–
N#CC1C(=O)c2ccccc2C1c1ccccc1 (configuration not stated)	–	inconclusive: 22.4 µM [inhibitor, single point]
CC(C)c1ccc(N(CCc2ccccn2)C(=O)C(C)(C)C)cc1	inactive: 5.71%	–
COc1cccc(CNC(=O)C2CCN(S(=O)(=O)c3c(C)noc3/C=C/c3cccs3)CC2)c1	–	inconclusive: 11.2 µM [inhibitor, single point]
O=C(NCc1ccccc1)c1onc(CSc2ccccc2)c1C(=O)NCC1CC1	–	inconclusive: 35.5 µM [inhibitor, single point]
CCc1cc(/C(Cc2ccccn2)=N\Nc2ccccc2)c(O)cc1O	–	inconclusive: 35.5 µM [inhibitor, single point]
CNC(=O)c1[nH]cnc1C(=O)N[C@@H](Cc1ccccc1)C(=O)OCc1ccccc1	inactive: 1.77%	–
O=C(COc1ccc(Cl)cc1)Nc1nc(-c2cccs2)cs1	–	inconclusive: 20 µM [inhibitor, single point]
COc1ccccc1NC(=S)NNC(=O)c1cc(C)nn1C	inactive: 1.34%	–
COC(=O)c1sc2nc(CSc3nc4ccc(C)cc4[nH]3)[nH]c(=O)c2c1C	inactive: 3.67%	–
c1ccc(Nc2ncnc3[nH]ncc23)cc1	–	inconclusive: 3.55 µM [inhibitor, full curve, poor fit]
Cc1ccc(-c2nc(NCc3ccco3)c3ccccc3n2)cc1	–	inconclusive: 35.5 µM [inhibitor, single point]
CCCCn1c(N)c(N(CC(C)C)C(=O)Cn2c(=O)cnc3ccccc32)c(=O)[nH]c1=O	–	inconclusive: 0.562 µM [inhibitor, partial curve, poor fit]
CC(CCc1ccc(O)cc1)N1CCC(Oc2ccc(C(=O)N3CCCC3)cc2)CC1 (configuration not stated)	inactive: 12.9%	–

SMILES	activity, negative = inhibition	Potency
COC(=O)c1c(C)n(-c2ccccc2)c2ccc(O)cc12	inactive: -22.9%	–
CCn1ccnc1CN1CCc2c([nH]c3ccccc23)C1CC(C)C (configuration not stated)	–	inconclusive: 35.5 µM [inhibitor, single point]
COc1ccc2nc(NNC(=O)c3cc(=O)c4ccccc4o3)sc2c1	–	inconclusive: 12.6 µM [inhibitor, partial curve]
Cc1csc(SCC(=O)Nc2ccccc2[N+](=O)[O-])n1	inactive: -16.2%	–
O=C(Nc1nc2ccccc2s1)c1cccc(S(=O)(=O)N2CCc3ccccc32)c1	–	inconclusive: 20 µM [inhibitor, single point]
COc1ccc(CNC(=O)Cn2ncc3c(=O)oc4ccccc4c32)c(OC)c1	inactive: -9.68%	–
CCNC(=S)N/N=C(\C)c1ccc2c(c1)OCCO2	–	inconclusive: 6.31 µM [inhibitor, single point]
Cc1ccc(CNC(=O)CCSCc2cnn(-c3ccccc3)c2-n2cccc2)cc1	–	inconclusive: 1.12 µM [inhibitor, full curve, poor fit]
NC(=S)N/N=C/c1ccc(-c2cc(Cl)ccc2Cl)o1	–	active: 10 µM
COC(=O)c1scc(C)c1NC(=O)c1cccc(C#N)c1	inactive: 0.293%	–
COCCCN=C1NN=C(c2cc(C)n(Cc3ccccc3Cl)c2C)CS1	–	inconclusive: 8.91 µM [inhibitor, partial curve, poor fit]
COc1cccc(NC(=S)N2CCC(NC(=O)C3CCCCC3)CC2)c1	–	inconclusive: 0.501 µM [inhibitor, full curve]
Cc1cc(O)ccc1N=Cc1c(C(F)(F)F)[nH][nH]c1=O	–	inconclusive: 35.5 µM [inhibitor, single point]
O=[N+]([O-])c1cccc(S(=O)(=O)Nc2nc3ccccc3nc2Nc2cccc(S(=O)(=O)N3CCCCC3)c2)c1	–	active: 4.47 µM
C=CCCCN(Cc1ccccc1)S(=O)(=O)c1ccccc1Br	–	inconclusive: 35.5 µM [inhibitor, single point] and inconclusive: 11.2 µM [inhibitor, partial curve]
CCOc1cc2c(cc1OCC)C(CC(=O)OC)N(C(=O)Nc1cc(OC)ccc1OC)CC2 (configuration not stated)	–	inconclusive: 8.91 µM [inhibitor, partial curve]
Cc1cc(C)cc(NC(=O)CSc2nc3c(oc4ccccc43)c(=O)n2-c2ccccc2)c1	–	inconclusive: 0.631 µM [inhibitor, partial curve, poor fit]
CCCCC(=O)N(C)c1c(C)nc2ccc(C(=O)N(CC)CCN(C)C)cn12	inactive: -0.173%	–
CCN(CC)C(=O)c1sc2c(c1C)c(=O)n(CCc1ccccc1)c(=O)n2Cc1ccc(C)cc1	–	inconclusive: 20 µM [inhibitor, single point]
COc1ccc(CCNC(=O)Cc2ccc(OCc3ccccc3)c(OC)c2[N+](=O)[O-])cc1OCc1ccccc1	inactive: -2.58%	–
O=S(=O)(Nc1cccc(S(=O)(=O)N2CCCCCC2)c1)c1ccccc1	inactive: -0.974%	–
Cc1ccc(C(=O)N2CCN(Cc3ccc4c(c3)OCO4)CC2)c(Cl)c1	–	inconclusive: 35.5 µM [inhibitor, single point]
O=C(N/N=C/c1ccccc1[N+](=O)[O-])c1ccncc1	inactive: 0%	–

SMILES	activity, negative = inhibition	Potency
Cc1ccc2c(C)ccnc2c1	–	inconclusive: 2.82 µM [inhibitor, partial curve, poor fit]
CC(=O)Nc1ccc(S(=O)(=O)N2CCN(c3nc(NC4CCCC4)c4ccccc4n3)CC2)cc1	–	inconclusive: 15.8 µM [inhibitor, single point]
COc1cc(CN(C(=O)c2ccccc2Br)c2ccccn2)cc(OC)c1OC	inactive: -7.28%	–
CC(=O)c1c(C)n(S(=O)(=O)c2ccc(Cl)cc2)c2ccc(NS(=O)(=O)c3ccc(Cl)cc3)cc12	–	inconclusive: 2.82 µM [inhibitor, partial curve]
Brc1cccc(-c2n[nH]c(-c3ccccc3)n2)c1	–	inconclusive: 22.4 µM [inhibitor, single point]
Cc1cc(C)cc(NC(=O)Cn2nc(N3CCN(c4ccccc4)CC3)ccc2=O)c1	–	inconclusive: 35.5 µM [inhibitor, single point]
CCN(CC)C(=O)CSc1nc2cc3c(cc2c(=O)n1CCCC(=O)NCCc1ccc(OC)c(OC)c1)OCO3	inactive: -8.7%	–
CC(C)Oc1ccc(F)cc1-c1cc(C(=O)NCc2ccc(C(F)(F)F)cc2)[nH]n1	–	inconclusive: 35.5 µM [inhibitor, single point]
CC1CCC/C=C/C(=O)c2c(O)cc(O)cc2CC(=O)O1 (configuration not stated)	–	active: 7.08 µM
CN(C)S(=O)(=O)c1ccc2c(c1)N(CC(=O)Nc1cccc(C(F)(F)F)c1)C(=O)CS2	–	inconclusive: 22.4 µM [inhibitor, partial curve, poor fit]
CCCN(CCC)S(=O)(=O)c1ccc(C(=O)Nc2nnc(-c3cc(OC)cc(OC)c3)o2)cc1	inactive: -3.52%	–
CS(=O)(=O)N1CCN(/[N+]([O-])=N/Oc2ccc([N+](=O)[O-])cc2[N+](=O)[O-])CC1	–	inconclusive: 31.6 µM [inhibitor, single point]
O=C(Cn1c(=O)[nH]c2ccccc2c1=O)Nc1ccc2c(c1)OCCO2	–	inconclusive: 3.98 µM [inhibitor, full curve]
CC(=O)Nc1ccc(NC(=O)c2cc(CN3CCCC3)on2)cc1	–	inconclusive: 20 µM [inhibitor, single point]
COc1cc(C(=O)NC(c2ccccc2Cl)c2cc(Cl)c3cccnc3c2O)cc(OC)c1OC (configuration not stated)	–	inconclusive: 5.01 µM [inhibitor, partial curve, poor fit]
CCOc1ccc(NC(=O)Cn2c(=O)n(CC3CCC(C(=O)NCCc4ccccc4)CC3)c(=O)c3ccccc32)cc1 (configuration not stated)	–	inconclusive: 35.5 µM [inhibitor, single point]
N#C/C(=N\Nc1ccc(S(=O)(=O)N2CCCCC2)cc1)C(N)=S	–	inconclusive: 14.1 µM [inhibitor, partial curve, poor fit]
Cc1ccc(-n2nc3c(N4CCC(C(=O)NCc5ccccc5C)CC4)nnc(C)c3c2C)cc1	–	active: 17.8 µM
Cc1cc(=O)n(Cc2c(F)cccc2Cl)c2c1c(C)nn2-c1cccc(F)c1	inactive: -2.43%	–
Clc1ccc(COn2c(-c3ccccc3)nc3ccccc32)cc1	inactive: 13.7%	–
CCOc1ccc(NC(=S)Nc2ccccc2C2(C)CC2)cc1	–	inconclusive: 14.1 µM [inhibitor, single point]
